{"source": "PubChem BioAssay AID463173", "about": "(ICCB-Longwood Screening Facility, Harvard Medical School, 2010)", "note": "In all, about 52,000 compounds went through this assay and about 4,300 (8.3%) were called active. Cut-off read from the data, not from the text of the source: active = survival mostly below about 52% (no sharp cut-off); inactive = mostly above about 56%. The list shows a part of the results."}
{"tested_on": "DeltatarO mutant", "assay": "S. aureus survival, RN4220 and DeltatarO strains – OD600, teichoic acid synthesis inhibitors, primary screen (AID 463173)", "details": "S. aureus RN4220 wild type/DeltatarO growth, OD600, 18 h, stronger effect = lower value, screened at 18.75 µg/mL (by protocol)"}
{"compound": "CCOc1ccc(C(=O)NCc2nnnn2-c2ccc(C)c(C)c2)cc1OCC", "survival": "inactive: 69%"}
{"compound": "Cc1cc(C)c2[nH]c(=O)c(CN(CCCO)C3(c4nnnn4C4CCCC4)CCCC3)cc2c1", "survival": "inactive: 84%"}
{"compound": "Cc1nc2cc(C(=O)NCCC3=CCCCC3)ccc2n1-c1ccc(Br)cc1", "survival": "inactive: 60%"}
{"compound": "Cc1ccc(-n2c(=O)c3ccc(C(=O)NCc4ccccc4Cl)cc3n(CC(=O)Nc3cccc(Cl)c3)c2=O)cc1", "survival": "inactive: 126%"}
{"compound": "CCc1nn(CC(=O)NCC(C)c2ccccc2)c(=O)c2cc3occc3n12", "note": "(centres undefined)", "survival": "inactive: 120%"}
{"compound": "COC(=O)c1ccc(OCC2c3cc(OC)c(OC)cc3CCN2C(=O)c2ccccc2C)cc1", "note": "(centres undefined)", "survival": "inactive: 93%"}
{"compound": "Cc1ccc(-c2nnc(Nc3ccc(Br)cc3)c3ccccc23)cc1S(=O)(=O)NCC1CCCO1", "note": "(centres undefined)", "survival": "inactive: 92%"}
{"compound": "Cc1nc(N2CCCC2)c2c(C(=O)N3CCN(c4ccc(F)cc4)CC3)c(C)oc2n1", "survival": "inactive: 85%"}
{"compound": "CCOC(=O)c1cc2c(ccn2C)n1CC(=O)N1CCCC(C)C1", "note": "(centres undefined)", "survival": "inactive: 95%"}
{"compound": "O=C(OC1CSc2nc3ccccc3n2C1)c1ccco1", "note": "(centres undefined)", "survival": "inactive: 80%"}
{"compound": "CCc1cccc(CC)c1NC(=O)c1c(C)oc2ccc(O)c(CN3CCN(C)CC3)c12", "survival": "inactive: 91%"}
{"compound": "Cc1cccc(N2CCN(C(=O)Cn3ncc4c3-c3cc(C)ccc3OC4)CC2C)c1", "note": "(centres undefined)", "survival": "active: 47%"}
{"compound": "Cc1cccc(Cn2c(=O)n(CC3CCC(C(=O)NC(C)C)CC3)c(=O)c3sccc32)c1", "note": "(centres undefined)", "survival": "inactive: 91%"}
{"compound": "CSc1ccc(CCNC(=O)C2=C(C)C(=O)OC23CCCCC3)cc1", "survival": "inactive: 85%"}
{"compound": "COc1ccc(NC(=O)CN2C(=O)C(C)(C)c3ccccc32)cc1Cl", "survival": "inactive: 83%"}
{"compound": "COc1cccc(C2CC(=O)Nc3cc(OC)c(OC)c(OC)c32)c1OC(C)C", "note": "(centres undefined)", "survival": "inactive: 93%"}
{"compound": "COc1ccccc1CN1CCC(CNS(=O)(=O)c2cc(-c3onc(C)c3C)ccc2OC)CC1", "survival": "inactive: 91%"}
{"compound": "Cc1nn(-c2ccccc2)c(OC(=O)c2cccc(Br)c2)c1S(=O)(=O)c1ccccc1", "survival": "inactive: 74%"}
{"compound": "N#Cc1nc(-c2ccc(COc3ccccc3)o2)oc1NCc1cccnc1", "survival": "active: 44%"}
{"compound": "CC(C)NC(=O)C1CCC(Cn2c(=O)c3sccc3n(CC(=O)N3CCCC3)c2=O)CC1", "note": "(centres undefined)", "survival": "inactive: 67%"}
{"compound": "COc1ccc(NC(=O)c2ccc3c(=O)n4nc(Nc5ccccc5C)sc4nc3c2)cc1Cl", "survival": "inactive: 99%"}
{"compound": "Cc1ccccc1Nc1cc(C(=O)NC2CCCC2)c2ccccc2n1", "survival": "inactive: 85%"}
{"compound": "CCCOc1ccc(NC(=O)CC2C(=O)N(c3ccccc3)C(=O)N2Cc2ccc(F)cc2)cc1", "note": "(centres undefined)", "survival": "active: 17%"}
{"compound": "Cc1cccc(Cn2cc(/C=C(/C#N)C(=O)Nc3cccc(Cl)c3)c3ccccc32)c1", "survival": "inactive: 79%"}
{"compound": "CCN(C(=O)c1cc2c(=O)oc3ccccc3c2s1)c1ccc(C)c(C)c1", "survival": "active: 15%"}
{"compound": "Cc1ccc(Cn2c(C(=O)O)c(CNC3CCCCC3)c3ccc(C)cc32)cc1", "survival": "inactive: 86%"}
{"compound": "Cc1cc(C)cc(NC(=O)c2cc(C)nc3c2c(C)nn3-c2ccccc2)c1", "survival": "active: -5%"}
{"compound": "O=C(CSc1nnc(Cc2ccccc2)n1Cc1ccco1)NC1CCCC1", "survival": "active: 44%"}
{"compound": "COc1ccc(NC(=O)Cn2c(=O)n(CCC(C)C)c(=O)c3cccnc32)cc1Cl", "survival": "inactive: 70%"}
{"compound": "COc1cccc(-c2nc(SCC(=O)NCC3CCCO3)c(-c3ccc(C)cc3)[nH]2)c1", "note": "(centres undefined)", "survival": "inactive: 103%"}
{"compound": "CCOc1ccc(C2CC(=O)NC(NC(=O)c3ccc(C)cc3)=N2)cc1", "note": "(centres undefined)", "survival": "inactive: 89%"}
{"compound": "CCOc1ccc(NC(=O)c2cc3c(C)nn(-c4ccccc4)c3s2)cc1", "survival": "inactive: 75%"}
{"compound": "Cc1ccc(OCC(=O)N(Cc2ccc(Cl)cc2)Cc2ccco2)cc1C", "survival": "inactive: 58%"}
{"compound": "CCN(CC)c1nc2c(S(=O)(=O)c3ccccc3)nnn2c2ccc(Cl)cc12", "survival": "inactive: 60%"}
{"compound": "CCOc1ccccc1CNC(=O)c1nc(-c2ccc(Cl)cc2)n2c1CCCCC2", "survival": "inactive: 67%"}
{"compound": "CCOc1ccc(CCNC(=O)c2c(C)oc3ncn(CC(C)C)c(=O)c23)cc1", "survival": "inactive: 72%"}
{"compound": "Cc1cccc(-c2nc(S(=O)(=O)c3ccc(Cl)cc3)c(N3CCCCCC3)o2)c1", "survival": "active: 46%"}
{"compound": "Clc1ccccc1CNc1ncnc2c1nc1n2CCCC1", "survival": "inactive: 97%"}
{"compound": "CSc1nc2ccc(S(=O)(=O)N3CCCCC3)cc2s1", "survival": "inactive: 98%"}
{"compound": "CC1CCN(C(=O)Cn2c(SCC(=O)NC(C)(C)C)nc3ccccc32)CC1", "survival": "inactive: 92%"}
{"compound": "CCc1ccc(NC(=O)Cn2nnnc2N)cc1", "survival": "inactive: 87%"}
{"compound": "CCC(=O)C1C(=O)CC(C)(C)CC1=O", "survival": "inactive: 103%"}
{"compound": "Cc1ccc(C(=O)NCC(c2ccc3c(c2)OCO3)N2CCN(c3ccc(F)cc3)CC2)cc1", "note": "(centres undefined)", "survival": "inactive: 78%"}
{"compound": "CC(C)=CCc1c(O)cc(O)c2c1OC(c1ccccc1)CC2=O", "note": "(centres undefined)", "survival": "active: 1%"}
{"compound": "CCOc1ccccc1NC(=O)Cn1c(=O)n(Cc2nc(C)no2)c(=O)c2ccccc21", "survival": "inactive: 81%"}
{"compound": "O=C(COC(=O)c1cccs1)NCc1cccs1", "survival": "inactive: 81%"}
{"compound": "Cc1ccccc1C(=O)Nc1ccccc1OCc1cc(=O)n2ccccc2n1", "survival": "inactive: 80%"}
{"compound": "Cc1cc(C)cc(NC(=O)C2CCCN(c3cnccn3)C2)c1", "note": "(centres undefined)", "survival": "inactive: 83%"}
{"compound": "Cc1ccc(Cl)cc1NC(=O)c1cc2c(=O)n3cccc(C)c3nc2n1C", "survival": "inactive: 50%"}
{"compound": "Cc1ccc(S(=O)(=O)c2cnc(SCC(=O)Nc3ccccc3C(F)(F)F)[nH]c2=O)cc1C", "survival": "inactive: 68%"}
{"compound": "CCOc1cc(CNC(=O)c2ccc3c(c2)nc2n3CCCCC2)ccc1OC", "survival": "inactive: 86%"}
{"compound": "Cc1ccc(N2CCN(C(=O)c3ccc(Nc4nc5ccccc5n5nnnc45)cc3)CC2)c(C)c1", "survival": "inactive: 82%"}
{"compound": "COc1ccccc1N1CCN(S(=O)(=O)c2c(C)sc3ncn(CC(=O)Nc4ccc(C(C)C)cc4)c(=O)c23)CC1", "survival": "inactive: 70%"}
{"compound": "COc1ccc(-n2c(=O)c3c4c(sc3n(CC(=O)N3CCCCC3C)c2=O)CCC4)c(OC)c1", "note": "(centres undefined)", "survival": "inactive: 87%"}
{"compound": "CC1CCN(CCCNC(=O)CN2C(=O)CSc3ccc(S(=O)(=O)N4CCC(C)CC4)cc32)CC1", "survival": "inactive: 95%"}
{"compound": "O=C(NCc1ccc(F)cc1)C1CCN(S(=O)(=O)c2ccc3c(c2)CCCN3C(=O)C2CCC2)CC1", "survival": "inactive: 91%"}
{"compound": "O=C(COc1ccccc1Cl)N(Cc1ccco1)Cc1ccco1", "survival": "inactive: 63%"}
{"compound": "Cc1ccccc1C(=O)Oc1cc(-c2ccc3c(c2)OCO3)cc(=O)c2c(C)oc(C)c12", "survival": "inactive: 111%"}
{"compound": "CN(C)c1ccc(NC(=O)CSc2nc(-c3ccco3)cc(C(F)(F)F)n2)cc1", "survival": "inactive: 65%"}
{"compound": "COc1ccccc1OCCCCn1c(C2CC(=O)N(c3ccccc3Cl)C2)nc2ccccc21", "note": "(centres undefined)", "survival": "inactive: 61%"}
{"compound": "Cc1ccc(NC(=O)/C(C#N)=C/c2ccccc2Cl)cc1C", "survival": "active: 34%"}
{"compound": "COc1ccc(CCNC(=O)Cn2c(=O)n(-c3ccc(OC)c(OC)c3)c(=O)c3ccccc32)cc1OC", "survival": "inactive: 92%"}
{"compound": "CCN(CC)CCNC(=O)CN1C(=O)c2cccnc2Oc2ccc(C)cc21", "survival": "inactive: 67%"}
{"compound": "CCN(C(=O)c1sc2cc(OC)ccc2c1Cl)c1ccccc1", "survival": "active: 0%"}
{"compound": "Cc1ccc(NC(=O)CN2c3ccccc3S(=O)(=O)c3ccccc32)cc1F", "survival": "inactive: 33%"}
{"compound": "CN(Cc1ccccc1)Cc1c(O)ccc2c(=O)c(-c3ccccc3)c(C(F)(F)F)oc12", "survival": "inactive: 124%"}
{"compound": "O=C(NC1CCCC1)c1cnn(-c2ccc(F)cc2F)c1C1CCNCC1", "survival": "inactive: 49%"}
{"compound": "Cc1ccccc1C(=O)NC1CCN(CC(=O)NC(C)(C)C)CC1", "survival": "inactive: 85%"}
{"compound": "Cc1cccc(Cn2c(=O)n(CCCCC(=O)NCc3ccc4c(c3)OCO4)c(=O)c3ccccc32)c1", "survival": "inactive: 102%"}
{"compound": "CCSc1nnc2c(n1)OC(c1ccc(OC)cc1OC)N(C(C)=O)c1ccccc1-2", "note": "(centres undefined)", "survival": "active: 58%"}
{"compound": "S=C(Nc1ccccc1)N1CCOCC1", "survival": "inactive: 89%"}
{"compound": "CC(=O)NCCNc1nc2c(-c3cccc(C)c3)nnn2c2ccc(Cl)cc12", "survival": "inactive: 80%"}
{"compound": "CSc1ccc(CNC(=O)Cc2csc3ccccc23)cc1", "survival": "inactive: 83%"}
{"compound": "COc1cccc(Nc2sc(C(=O)c3ccc4c(c3)OCO4)c(N)c2S(=O)(=O)c2ccccc2)c1", "survival": "inactive: 87%"}
{"compound": "COc1ccc(-n2nnnc2C2CCN(S(=O)(=O)c3ccc(F)cc3Cl)CC2)cc1", "survival": "inactive: 68%"}
{"compound": "COc1ccc(N2CC(NC(=O)Cc3cccs3)CC2=O)cc1", "note": "(centres undefined)", "survival": "inactive: 49%"}
{"compound": "CC(C)NC(=O)COc1ccc(S(=O)(=O)N2CCCC2)cc1", "survival": "inactive: 97%"}
{"compound": "COc1cc(NC(=O)Cn2c(=O)n(CC(=O)NCCc3ccc(OC)c(OC)c3)c(=O)c3sccc32)cc(OC)c1", "survival": "active: 49%"}
{"compound": "Cc1nc(-c2ccc(S(=O)(=O)N3CCN(c4cccc(Cl)c4)CC3)cc2)co1", "survival": "inactive: 91%"}
{"compound": "CC(=O)c1cccc(NC(=O)c2sc(-n3nc(C)c(CCC(C)C)c3C)nc2C)c1", "survival": "inactive: 53%"}
{"compound": "Cn1cc(C(=O)O)c(=O)c2ccccc21", "survival": "inactive: 80%"}
{"compound": "Cc1ccc(C(=O)c2oc3ccccc3c2NC(=O)c2cc(-c3ccc(Cl)cc3)on2)cc1", "survival": "inactive: 87%"}
{"compound": "COc1ccc(Cl)cc1NC(=O)Cn1ncc2c3ccccc3n(Cc3ccccc3)c2c1=O", "survival": "inactive: 125%"}
{"compound": "Cc1ccc2ncc(S(=O)(=O)c3ccccc3)c(N3CCCCC3C)c2c1", "note": "(centres undefined)", "survival": "active: 7%"}
{"compound": "CCn1c(C)c(C)c2cc(C(=O)NCc3ccc(N(C)C)cc3)ccc21", "survival": "inactive: 113%"}
{"compound": "COc1ccc(CNC(=O)CN(c2cc(C(F)(F)F)ccc2Cl)S(C)(=O)=O)cc1", "survival": "inactive: 71%"}
{"compound": "COc1ccc(C2=NC3(CCCCCC3)N(CC(=O)Nc3ccc(C)c(C)c3)C2=O)cc1", "survival": "inactive: 70%"}
{"compound": "CCc1nc2c(cnn2-c2ccc(C)cc2)c(=O)n1-c1ccc(C)cc1", "survival": "inactive: 47%"}
{"compound": "COc1ccc(S(=O)(=O)c2c(SC)nn(CC(=O)Nc3ccc(C)c(Cl)c3)c2N)cc1", "survival": "inactive: 83%"}
